Data: the supplement of paper PMC10126150
Sequences with one replicate were seen in a single cluster, so their values are uncertain.

Tested on: ATP
Assay: switch fluorescence ratio, 500 uM ATP over buffer (Cy3 cluster intensity, sum of 5 cycles each) (fold (ratio)); higher = stronger signal-on switching upon ATP binding; sequences stand for … in TCGTCGGCAGCGTCAGATGTGTATAAGAGACAGTTTTTTTTTTTTTTTTTTTTTTTTT…TC
Conditions: aptamer strand: ATP DNA aptamer (quencher-CACCTGGGGGAGTATTGCGGAGGAAGG + anchor), 100 nM annealed; ATP concentration: 500 uM; one replicate
Procedure, shortened: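 Five buffer/ATP imaging cycles were run on Cy3-labelled switching-strand clusters on a modified Illumina MiSeq flow-cell, with NaOH stripping and re-annealing between cycles. In each cycle, clusters annealed to 100 nM quencher-labelled ATP aptamer were imaged in selection buffer, then after 15 min with 500 uM ATP at 22 °C. Per cluster, the fluorescence ratio is summed target-cycle over summed buffer-cycle Cy3 intensity, averaged per switch-domain sequence. Only clusters within 100-1000 RFU were kept.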
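Also: ATP exposure 15 min at 22 °C before imaging.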

Sequence | switch fluorescence ratio
AGAGAATTGC | 0.966
GCTAATAGTA | 0.981
TGAAAACTCG | 1.04
TGCAAAAAAG | 1.08
AGGATTCTTG | 0.976
TCACGTGGGC | 0.974
TTCGTGCTTG | 0.955
TAGAAAGGTT | 1.04
TTTAACTTCT | 1.09
GATGAGTAGG | 1.04
GCTGAATCGG | 0.998
TACCCCCTGG | 1.11
TCTGATGGTA | 1.05
ACCCTATAGC | 1.16
TACTTGGGCG | 1.08
ACTCGGAGAG | 1.02
AGTTTCCGGT | 0.963
GCATGTGCGG | 0.962
TTACACTGCG | 1.05
CGCCTTAGTA | 1.01
GCTCTCTTCA | 1.01
AAGTGCATTC | 1.03
CGCCTTCCTA | 2.07
AAACTACTAA | 1.11
ATCGTCCGAT | 0.945
CATGCCGGAC | 1.02

Sequence | switch fluorescence ratio
AGCCGGCTCG | 1.01
GTTGCGGCCG | 0.897
CGGCTATTAT | 1
CCCGGGGGCC | 1.03
CTAGCTCACG | 1.06
GCGATCATTA | 1.03
GTATTTATGT | 0.985
CACTTCCCGC | 2.59
GCTATAAGCT | 1.06
ATGCTTGCCT | 1.02
TAATACAAAC | 1.15
ATCGTTAATC | 1.01
TATCACTGCA | 1.1
TGTAAGAAAG | 1.04
TGGCCAGTAG | 0.982
ACGGATGCAA | 3.36
GTTAGGTAAC | 0.996
ACATACATCC | 1.27
TTTCGGATT | 1
CCGAAGGTGA | 1.35
TGCATAGCGA | 1.01
TTTAGGTATA | 0.986
ATATGTCTCT | 0.977
GCACGAGATT | 1.05
CTGCTTCAAT | 0.971
CAGTTGGTAA | 1

Sequence | switch fluorescence ratio
ACATCTGCAT | 1.32
TGTTTGGAAA | 0.936
CCCATGCTTT | 1.06
TTGATAAGGA | 0.992
ATCGTTTGTA | 0.994
TAGACATTTA | 0.973
ATAGTGAATA | 1.04
ATTGGGACAC | 1
TGCGCCACCG | 1.02
ATAGCCCCGA | 1.02
ATGGCCCAGG | 2.33
TACGCTGGAA | 0.987
ACGTAGTCTG | 1.02
ATAGGTGGGC | 0.984
TTGCCAGAAC | 0.99
GCGTAATCAC | 2.71
TGTAGACT | 1.04
AGAACAATGG | 1.03
CGCCAAGGAC | 1.6
CGGCGTACT | 1.04
TTTGTTTCAG | 0.982
ATAACCGGCC | 2.89
CATGGCCGGG | 1.04
CAGCACTTTC | 1.49
AGATCGTCTG | 0.967
TAGGGCAGCA | 0.965

Sequence | switch fluorescence ratio
TTGCGTACCA | 1.01
GCGGCAGATG | 0.997
CTTGGGAATG | 0.975
TTACTGGCCA | 1.03
CACTTCTACA | 1.18
AACGCCTCGT | 1.01
CAGTGCGCGG | 1.01
TATTGGTTGA | 0.977
TTATAACGG | 1.06
CGGGCTTCAC | 1.01
GTTTGTCGGC | 0.893
GGATCAGCGG | 1.06
ACGGATTCGT | 1.01
CAGAGTGACA | 1
TACGGTTTTA | 0.964
TTGACTGGGC | 0.92
CAGTCACTGA | 1.07
GACATTGGCA | 0.968
CAACGTTTGG | 0.998
GGCTTTGTGC | 0.979
CGTATGTATT | 0.995
AACATTTTT | 1.3
CGGAGGTCGA | 1.01
CTGGTCACAT | 0.973
GGAGTTATCA | 1.02
TACCTTGGAC | 1.07

Sequence | switch fluorescence ratio
AGATACTTGC | 1.05
CCCAAGGAGA | 1.05
GAGACGTAGG | 1
TGAAGGGAAT | 1.05
AGCGGTAAA | 1.03
GGTCTCTA | 0.98
GATAAAGCGT | 1.01
CCGGTCCATA | 1.15
CGCTCAGGAG | 1.26
GCATAGAGG | 0.975
ACAAGGTCTG | 0.982
AGACTCAGGT | 1.01
TATGTTTAGT | 0.994
AGAGCCAGTT | 0.956
ATAAACTCTC | 1.1
GATCCCCTCT | 1.03
GCCGATAAGG | 0.979
AGGACGCGGA | 0.997
GCCGACTAGC | 1.06
GGGGGGACCC | 0.927
GCGGTCAGTA | 0.991
AGGGTTTCTA | 0.987
GTACGTAGCT | 1.18
TACCTCGTAG | 1.01
TGTGGGCGCT | 1.01
TATCGGATGT | 1.01

Sequence | switch fluorescence ratio
GGAGGCTTGT | 0.953
GCTCGACTCT | 1.03
CACTACAGTT | 1.05
AACTGACGTG | 1.09
CCTTGCGGCC | 1.93
ATTGACGA | 1.01
CGCCGAAAGT | 1.02
GATACAGGTT | 0.994
CTTGTATCCG | 0.964
TGAAACGCGA | 1.26
AATCGATCGC | 0.963
GAATTTGTGT | 0.969
GCATCGTACA | 1.14
AGGTATCACG | 0.965
TACTCGACTT | 1.11
CTGCTAGGCG | 1.07
ATTGGGTGTA | 1.02
ATAAACGGCC | 1.04
TCAGAGCCCA | 1.38
TAGTTTCTGC | 1.02
CTTGGCCCGA | 1.01
GACTTGACTC | 1.08
TCCCCTACAC | 1.1
